Data on 54 compounds can be found in paper PMC4336329 (PLoS ONE, 2015).

Each structure is given as a SMILES string. About 2,200 (0.71%) of roughly 310,000 compounds showed an effect of 50% or more. The effect is printed as a negative number. This is one part of the list.

Chain of human ether-à-go-go-related gene (hERG) potassium channel (Q12809 whole entry, looked up): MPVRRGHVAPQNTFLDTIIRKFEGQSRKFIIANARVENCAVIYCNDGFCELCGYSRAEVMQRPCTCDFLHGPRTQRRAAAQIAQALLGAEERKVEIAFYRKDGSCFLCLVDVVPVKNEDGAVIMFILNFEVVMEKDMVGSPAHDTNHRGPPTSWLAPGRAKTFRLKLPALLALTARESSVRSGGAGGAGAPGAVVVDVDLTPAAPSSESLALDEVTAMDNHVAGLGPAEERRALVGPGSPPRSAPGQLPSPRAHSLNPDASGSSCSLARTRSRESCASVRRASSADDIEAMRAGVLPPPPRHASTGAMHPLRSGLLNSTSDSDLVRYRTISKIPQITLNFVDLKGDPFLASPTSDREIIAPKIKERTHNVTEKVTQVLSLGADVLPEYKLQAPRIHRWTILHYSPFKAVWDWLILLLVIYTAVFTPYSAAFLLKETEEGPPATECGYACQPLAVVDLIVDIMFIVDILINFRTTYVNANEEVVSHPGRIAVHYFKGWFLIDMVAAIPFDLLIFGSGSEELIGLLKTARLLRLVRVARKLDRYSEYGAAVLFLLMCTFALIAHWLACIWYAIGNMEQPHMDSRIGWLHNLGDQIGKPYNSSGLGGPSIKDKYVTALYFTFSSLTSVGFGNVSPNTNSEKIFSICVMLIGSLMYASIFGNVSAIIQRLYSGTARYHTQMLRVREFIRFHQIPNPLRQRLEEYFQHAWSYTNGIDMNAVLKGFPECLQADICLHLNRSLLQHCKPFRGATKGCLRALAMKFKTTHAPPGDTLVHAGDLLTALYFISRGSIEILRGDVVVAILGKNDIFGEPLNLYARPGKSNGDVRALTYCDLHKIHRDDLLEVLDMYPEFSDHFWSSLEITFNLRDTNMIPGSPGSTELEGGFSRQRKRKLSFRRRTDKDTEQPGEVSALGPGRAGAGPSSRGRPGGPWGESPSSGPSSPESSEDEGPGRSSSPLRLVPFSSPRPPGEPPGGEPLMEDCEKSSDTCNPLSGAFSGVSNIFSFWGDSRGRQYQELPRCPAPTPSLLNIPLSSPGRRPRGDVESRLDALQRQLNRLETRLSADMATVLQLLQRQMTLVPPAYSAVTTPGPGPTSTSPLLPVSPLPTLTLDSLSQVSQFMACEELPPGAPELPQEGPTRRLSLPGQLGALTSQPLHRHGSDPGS

This test has as its target human ether-à-go-go-related gene (hERG) potassium channel (human, UniProt Q12809). As to the kind of experiment: primary screen, population patch clamp on CHO cells stably expressing hERG.
With `COc1ccc(OCc2n(CC(=O)OC3CC(C)CCC3C(C)C)c3ccccc3[n+]2C)cc1.[Cl-]` (stereo not drawn), the “hERG current change (%, negative = inhibition) at 1uM” value is -45.5%.
The result for `O=[N+]([O-])c1ccc(NC(=S)NCc2ccncc2)cc1` reads 4.4%.
The value for `COC(=O)c1ccccc1NC(=O)C1CCN(C(=O)N2CCOc3ccccc32)CC1` was -15.7%; that for `CC1CC1C(=O)N(CCC1=CCCCC1)c1c(N)n(Cc2ccccc2)c(=O)[nH]c1=O` (stereo not drawn) was 14.9%.
As for `O=C(CSc1ncccc1-c1nc2ccccc2[nH]1)NCc1ccco1`, the “hERG current change (%, negative = inhibition) at 1uM” value is listed as -11.9%.
Turning to `COc1cccc(NC(=O)CN(C)CC(=O)Nc2cccc(C(F)(F)F)c2)c1`, the “hERG current change (%, negative = inhibition) at 1uM” value is -6.17%.
Take `Cc1ccc2oc(C(=O)Nc3nonc3C)c(C)c2c1`: the “hERG current change (%, negative = inhibition) at 1uM” value worked out at 11.8%.
For `Cc1c(Cl)cccc1NC(=O)CSc1nc2ncc(Cl)cc2[nH]1`, the “hERG current change (%, negative = inhibition) at 1uM” value is given as 13.7%.
The result for `COc1cccc(CN2CC(C(=O)NCc3cnn(C)c3)CCC2=O)c1` (stereo not drawn) reads 10.4%.
The value for `Cc1ccc(/C=N/NC(=O)c2nnn(-c3nonc3N)c2-c2ccc3c(c2)OCO3)s1` was 15.2%; that for `COc1ccc(N2CCN(c3ccc(NC(=O)NN)cc3)CC2)cc1` was 11.7%.
The result for `COc1ccccc1C(=O)Nc1sc2c(c1C(N)=O)CCCC2` reads 15.9%; that for `COC(=O)c1cc(COC(=O)CNC(=O)c2cccc(C)c2)oc1C`, 1.99%; that for `Cc1cc(C)n(-c2cc(N3CCN(C(=O)c4cccc(Br)c4)CC3)ccc2[N+](=O)[O-])n1`, -12%.
For `C=C1CCC[C@]2(C)C[C@H]3OC(=O)C(CNC(CC)CO)[C@H]3CC12` (stereo partly drawn), the “hERG current change (%, negative = inhibition) at 1uM” value is reported as 7.57%.
The value for `CC(C)(C)C(=O)Nc1ccc(-c2nc3ccccc3c(=O)o2)cc1` was 8.39%.
For `C/C=C/C=C\C(=O)Nc1cccc(C2=NOC3(C2)C[C@@H](C(N)=O)N(C(=O)c2cc([N+](=O)[O-])cc([N+](=O)[O-])c2)C3)c1` (stereo partly drawn), the “hERG current change (%, negative = inhibition) at 1uM” value was determined as 3.33%.
The result for `CC1(C)CC(NC(=O)c2coc(=O)c(Br)c2)CC(C)(C)N1` reads 5.88%.
Regarding `Cc1nn(Cc2ccc(Cl)cc2Cl)c(C)c1NC(=O)CCl`, the “hERG current change (%, negative = inhibition) at 1uM” value was -13.9%.
`Cn1c(NCC(O)CO)nc2c1c(=O)n(Cc1ccc(Cl)c(Cl)c1)c(=O)n2C` (stereo not drawn): the “hERG current change (%, negative = inhibition) at 1uM” value was found to be 0.157%.
The value for `O=C(CN(C(=O)c1csnn1)c1cccc(C(F)(F)F)c1)NCc1ccc(F)cc1` was 10.2%; that for `COC1=C(N2CCOCC2)C(=O)c2ccccc2C1=O` was 12.4%; that for `O=[N+]([O-])c1cccnc1Oc1ccc(F)cc1F` was 4.35%.
The result for `O=C(NCC1CCCO1)c1ccc(Cl)c(S(=O)(=O)Nc2ccccc2)c1` (stereo not drawn) reads 16.5%.
The value for `COc1ccc(OC)c(S(=O)(=O)n2c([N+](=O)[O-])cnc2C)c1` was 13.5%; that for `CCOC(=O)CCc1c(C)c2ccc(OC3CCCCC3=O)c(C)c2oc1=O` (stereo not drawn) was 7.51%.
In the case of `Cc1cc2c(cc1S(=O)(=O)Nc1ccc(OC(F)(F)F)cc1)OCC(=O)N2`, the “hERG current change (%, negative = inhibition) at 1uM” value came to 1.61%.
The result for `N=c1oc2ccccc2cc1C(=O)NCc1ccccc1` reads 8.6%.
The result for `CC1Cc2ccccc2N1C(=O)CSc1nccc(=O)[nH]1` (stereo not drawn) reads 3.36%; that for `COc1ccc(C(=O)N(CCc2ccccc2)Cc2ccccc2)c(OC)n1`, 8.4%.
The result for `CC(C)Oc1cccc(OCCN2C(=O)c3ccccc3C2=O)c1` reads 7.22%; that for `CC(Sc1nnc(-c2cccs2)n1N)C(=O)NCC1CCCO1` (stereo not drawn), 11.7%.
For the compound `O=C(O)C1=C(OCc2ccc(F)c(F)c2)C(=O)NCC1`, the “hERG current change (%, negative = inhibition) at 1uM” value is 13.4%.
On to `O=C(O/N=C\c1ccc(N2CCCCC2)c([N+](=O)[O-])c1)c1ccc(Cl)cc1Cl`, for which the “hERG current change (%, negative = inhibition) at 1uM” value is recorded as 9.28%.
As to `COc1ccc(C(=O)N/C(=C\c2ccco2)C(=O)NCc2ccco2)cc1`, the “hERG current change (%, negative = inhibition) at 1uM” value is listed as 7.82%.
The result for `CC(=O)Nc1ccc(CNC(=O)C[N+]2(C)CCOCC2)cc1.[Cl-]` reads 14.8%.
The value for `COc1ccc(C(=O)N/C(=C/c2cccnc2)C(=O)N2CCOCC2)cc1OC` was 11.7%.
As for `COc1cc2c(cc1OC)CN(CC(=O)NC(=O)NCc1ccco1)CC2`, the “hERG current change (%, negative = inhibition) at 1uM” value is recorded as 3.94%.
The value for `COc1ccc2c(c1)O[C@@H](c1cccc(C(F)(F)F)c1)[C@H](OC(=O)Nc1ccc(OC(F)F)cc1)C2=O` was 3.96%; that for `Cc1cc(/C=C(\C#N)C(=O)O)c(C)n1-c1ccc(Br)cc1` was 11.4%.
With `COc1cc(C(C)=O)ccc1OCC(O)CN1CCN(c2c(C)cccc2C)CC1` (stereo not drawn), the “hERG current change (%, negative = inhibition) at 1uM” value is -40.5%.
The result for `O=C(c1ccc2[nH]c(=O)c(=O)[nH]c2c1)N1CCc2ccccc21` reads 13.7%; that for `O=C1c2ccccc2C(=O)N1CC1c2ccccc2CCN1C(=O)C1CCCCC1` (stereo not drawn), -6.37%.
The value for `CCOC(=O)N1CCN(C(=O)c2cccn3c(=O)c4cc(Cl)ccc4nc23)CC1` was -3.31%; that for `Cc1cc2[nH]c(=O)c(=O)[nH]c2cc1S(=O)(=O)N1CCN(c2cccc(C(F)(F)F)c2)CC1` was 15.2%; that for `O=c1cc(/C=C/c2cccs2)[nH]c2ccccc12` was 8.94%.
With `Cc1ccc(C)c(NC(=O)c2cc(-c3cccnc3)nc3ccccc23)c1`, the “hERG current change (%, negative = inhibition) at 1uM” value was determined as 14.4%.
The result for `CC(CC(=O)Nc1nncs1)c1ccccc1` (stereo not drawn) reads 3.75%; that for `Cc1cc(Cl)cc2sc(NC(=O)c3ccco3)nc12`, 7.38%; that for `Cc1cc(NC(=O)CSc2nnc(C)c(=O)[nH]2)no1`, 8.78%.
The value for `COc1ccc(/C(=N/Nc2ncnc3ccccc23)C(=O)O)cc1` was 15.5%; that for `CCSc1ccc([C@@H]2[C@@H]3C(=O)N(CC)C(=O)[C@@H]3[C@]3(C(=O)OC)CCCN23)cc1.O=C(O)C(F)(F)F` was 9.99%.
In the case of `O=C(NN1C(=O)c2cc(Br)ccc2NC1c1cc(Br)cc(Br)c1O)c1ccncc1` (stereo not drawn), the “hERG current change (%, negative = inhibition) at 1uM” value is recorded as 11.5%.
Take `CCN1CCc2c(OCC(=O)N3CCc4ccccc43)cccc2C1=O`: the “hERG current change (%, negative = inhibition) at 1uM” value is 7.68%.
